{"source": "ChEMBL document CHEMBL4888484", "about": "“Replenishing the malaria drug discovery pipeline: Screening and hit evaluation of the MMV Hit Generation Library 1 (HGL1) against asexual blood stage Plasmodium falciparum ,using a nano luciferase reporter read-out” (2022)", "note": "About 540 (0.36%) of roughly 150,000 compounds showed an effect of 50% or more. The list shows a part of the results.", "data": [{"tested_on": "Plasmodium falciparum", "test": "Primary screen in NF54 nanoGlo assay, in single point, at 2uM, 72h; a lower Z score goes with more inhibition", "type": "functional, Erythrocyte", "conditions": "timepoint 72 hour", "units": {"% Inhibition": "%"}, "values": [{"compound": "CCC(C)N(Cc1ccc(OC)cc1)CC(O)COCc1ccco1", "note": "(stereo not given)", "% Inhibition": -7, "Z score": 0.98}, {"compound": "Cc1nc(-c2nc(C(C)(C)NC(=O)c3ccccc3)no2)co1", "% Inhibition": -15, "Z score": 2.39}, {"compound": "CC(CCN1CCCC(c2nnc[nH]2)C1)c1ccccc1", "note": "(stereo not given)", "% Inhibition": -12, "Z score": 1.55}, {"compound": "O=C(Nc1nnc(CC(F)(F)F)s1)C1CC12CCOC2", "note": "(stereo not given)", "% Inhibition": 0, "Z score": 0.04}, {"compound": "CCn1ncc(C(=O)N2CCC(Cc3ccc(COc4ccc(F)cc4)cc3)CC2)c1C", "% Inhibition": -12, "Z score": 2.26}, {"compound": "Cc1cnn(Cc2c(C(=O)N3CC4(C3)C[C@](C)(O)CO4)noc2C)c1", "% Inhibition": -4, "Z score": 0.58}, {"compound": "CC(C)Cc1nnc2n1CC(C)(C)CC2", "% Inhibition": -1, "Z score": 0.13}, {"compound": "COC(=O)c1cccc(C(=O)N2CCC[C@@H]2Cc2ccccc2Cl)n1", "% Inhibition": -4, "Z score": 0.55}, {"compound": "CCc1nc(N(C)C[C@H](O)COC)ncc1C", "% Inhibition": -19, "Z score": 1.99}, {"compound": "O[C@H]1CCOC[C@@H]1Nc1ccnc2cc(Cl)ccc12", "% Inhibition": 5, "Z score": -0.99}, {"compound": "COc1c(O)ccc2c(=O)c3c(O)cc(O)c(OC)c3n(C)c12", "% Inhibition": 42, "Z score": -4.72}, {"compound": "CN1CCN(C[C@@H]2CN(C(=O)Cc3c[nH]c4ccccc34)C[C@@H]2CO)CC1", "% Inhibition": -8, "Z score": 1.52}, {"compound": "FC(F)(F)c1cc(N2CCN(c3ncnc4c3CCCC4)CC2)ncn1", "% Inhibition": -14, "Z score": 1.77}, {"compound": "Cn1nc2c(c1C(=O)N1CC(Cc3ccoc3)C1)CCC2", "% Inhibition": -4, "Z score": 0.7}, {"compound": "COc1cc2c(nn1)CCN(CC(=O)Nc1nncs1)C2", "% Inhibition": 11, "Z score": -1.06}, {"compound": "Cc1nc2ccccc2c(N2CCC(c3nnc[nH]3)CC2)c1C", "% Inhibition": -8, "Z score": 0.86}, {"compound": "Cc1cc(C(=O)N(C)CC2(CO)CCOCC2)cc2sc(N)nc12", "% Inhibition": -12, "Z score": 2.12}, {"compound": "CC1CCN(C(=O)NC(=O)c2ccccc2)CC1", "% Inhibition": -12, "Z score": 1.4}, {"compound": "CC(C)c1noc(CN[C@H](c2ccccc2)C2(CO)CCOCC2)n1", "% Inhibition": -4, "Z score": 0.42}, {"compound": "CCc1ccc([C@H](COC)NS(=O)(=O)CCOCC2CC2)o1", "% Inhibition": 6, "Z score": -1.06}, {"compound": "CN(C[C@H]1CCCCN1C)c1ccc(C(N)=O)cn1", "% Inhibition": -11, "Z score": 2.15}, {"compound": "CCC(NS(=O)(=O)CCC1CCCO1)c1cccs1", "note": "(stereo not given)", "% Inhibition": -3, "Z score": 0.33}, {"compound": "CCn1c(=O)sc2cc(NC(=O)COc3ccc(Cl)cc3)ccc21", "% Inhibition": 1, "Z score": -0.08}, {"compound": "CCOC[C@H]1CCN(Cc2cccn2CC(=O)OC(C)(C)C)C1", "% Inhibition": 4, "Z score": -0.42}, {"compound": "CCn1c(=O)c(N2CCC[C@H](C(=O)NCc3cccc(C)c3)C2)nc2ccccc21", "% Inhibition": 31, "Z score": -0.01}, {"compound": "COc1cccc(-c2nn(Cc3ccccc3)c(-c3cccc(OC)c3)c2Cl)c1", "% Inhibition": 27, "Z score": -3.06}, {"compound": "NC(=O)C[C@@H](NC(=O)c1nc2n(n1)CCCN2)c1cccc(Cl)c1", "% Inhibition": 6, "Z score": -1.13}, {"compound": "Cn1cc(C(=O)N2CC[C@@](O)(c3ccccc3)[C@H]3CCCC[C@@H]32)ccc1=O", "% Inhibition": -6, "Z score": 1.14}, {"compound": "Cc1coc(-c2cccc(NC(=O)N(C)C[C@H](O)C(F)(F)F)c2)n1", "% Inhibition": -12, "Z score": 1.43}, {"compound": "Cc1noc(C(C)(C)S(=O)(=O)C2CC2)n1", "% Inhibition": 8, "Z score": -1.35}, {"compound": "CC1CC(C)CN(CC(C)NCc2cncn2C)C1", "note": "(stereo not given)", "% Inhibition": 5, "Z score": -0.73}, {"compound": "O=C(Cc1noc(-c2cnccn2)n1)Nc1ccccn1", "% Inhibition": -4, "Z score": 0.79}, {"compound": "C1CCC(Nc2nc(C3CC3)ns2)C1", "% Inhibition": -13, "Z score": 1.58}, {"compound": "CCN(CC1CCN(c2ccccn2)CC1)C(=O)[C@H]1CC[C@@H](c2ccccc2)O1", "% Inhibition": 0, "Z score": -0.02}, {"compound": "O=C(CC1CCCC1)Nc1nc(C2CC2)cs1", "% Inhibition": -2, "Z score": 0.27}, {"compound": "CCCCn1nnnc1N1CCN(C(=O)c2cccn2C)CC1", "% Inhibition": -3, "Z score": 0.44}, {"compound": "CCC(CC)C(=O)N1CC(=O)N2CC[C@@H](CC(=O)N3CCOCC3)[C@@H](/C=C\\COc3ccccc3C1)C2", "% Inhibition": -5, "Z score": 0.69}, {"compound": "O=C(CCN(C(=O)COCc1ccccc1)C1CCCCC1)Nc1nnc(-c2cccc(Cl)c2)s1", "% Inhibition": -13, "Z score": 1.88}, {"compound": "CNc1cc(C)nc(-c2cccc(C(=O)N(CCO)CCN(C)C)c2)n1", "% Inhibition": -15, "Z score": 1.75}, {"compound": "CCNc1ncc(C(=O)NCc2nc(C)cc(C)n2)cn1", "% Inhibition": -1, "Z score": 0.22}, {"compound": "Cn1cc(-c2ccc(NC(=O)N3CCOCC4(CC4)C3)nn2)cn1", "% Inhibition": -12, "Z score": 1.38}, {"compound": "CC1CC1C(=O)NCCC(=O)N(C)CC#N", "note": "(stereo not given)", "% Inhibition": -2, "Z score": 0.36}, {"compound": "C[C@@H](c1ccccn1)N(C)Cc1noc2c1CCCC2", "% Inhibition": -8, "Z score": 1.08}, {"compound": "Cc1c(C(=O)NCc2ccccc2F)sc2ncnc(N(C)C3CCCCC3)c12", "% Inhibition": -16, "Z score": 1.49}, {"compound": "c1cncc(-c2cc(CN[C@H]3CCOC34CCCCC4)n[nH]2)c1", "% Inhibition": 18, "Z score": -2.3}, {"compound": "COCCn1nc(-c2ccc3c(c2)OCO3)ccc1=O", "% Inhibition": 4, "Z score": -0.57}, {"compound": "CN1CCN(S(=O)(=O)c2cccc(F)c2)C[C@H]1c1ccccc1", "% Inhibition": -6, "Z score": 0.96}, {"compound": "COc1ccc(Cl)cc1S(=O)(=O)N1CC[C@@]2(CCCNC2=O)C1", "% Inhibition": -10, "Z score": 1.93}, {"compound": "Cc1cnc(C(=O)N2CCOc3ccc(CN4CCN(c5ccccc5)CC4)cc3C2)cn1", "% Inhibition": 5, "Z score": -0.67}, {"compound": "O=C(CC(=O)NCc1cccnc1)NCc1cccnc1", "% Inhibition": -20, "Z score": 2.36}, {"compound": "CCCN1CCN(CCCNC(=O)c2cc3cc(S(=O)(=O)N(C)C)ccc3n2CC)CC1", "% Inhibition": -15, "Z score": 2.13}, {"compound": "CC(c1nnnn1C)N1CCCC(c2nc3c(s2)CCCC3)C1", "note": "(stereo not given)", "% Inhibition": 7, "Z score": -1.03}, {"compound": "Cc1ccc(-n2ncc3c(N4CCCN(C(=O)C5CCCC5)CC4)nc(C)nc32)c(C)c1", "% Inhibition": -8, "Z score": 1.32}, {"compound": "O=c1cnn(Cc2c(Cl)cccc2Cl)c2ccccc12", "% Inhibition": -6, "Z score": 0.72}, {"compound": "CC(C)(C)CN1C[C@@H](NC(=O)C2=NNC(=O)CC2)CC1=O", "% Inhibition": -8, "Z score": 1.29}]}]}
